# From the supplement of paper PMC4967469
# A lower IC50 marks a more sensitive line; where the fit passes the top or lowest dose, that dose stands as a limit. AUC sums up the same curve from the lowest dose to the 256-fold higher top dose: 1 means no effect, lower means more sensitive. For some of these results: Any top dose called inferred comes from the curve model; the source does not state it.
# Columns and labels:
# Experiment in all cases: Viability of human cancer cell lines after 72 h of drug (GDSC screen)
# BMX-IN-1 (QL-XII-61) = compound: C=CC(=O)Nc1cc(-n2c(=O)ccc3cnc4ccc(-c5ccc(NS(C)(=O)=O)cc5)cc4c32)ccc1C [BMX-IN-1 (QL-XII-61)]; details: top dose 10 µM; top dose inferred
# Protocol: (§1)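 Human cancer cell lines in 384-well plates, medium with 10% serum, drug for 72 h over a 256-fold dose range (nine 2-fold or five 4-fold steps up to the top dose). Adherent lines were fixed and stained with the nucleic acid dye Syto60, suspension lines read with resazurin; signal relative to control wells, capped at 0 and 100%. One two-parameter sigmoid per drug and line, fitted in a mixed model over all curves with the slope shared within a line.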
# OSI-027 = compound: COc1cccc2cc(-c3nc([C@H]4CC[C@H](C(=O)O)CC4)n4ncnc(N)c34)[nH]c12 [OSI-027]; details: top dose 20 µM
# Protocol: as §1
# BIX02189 = compound: CN(C)Cc1cccc(N=C(c2ccccc2)c2c(O)[nH]c3cc(C(=O)N(C)C)ccc23)c1 [BIX02189]; details: top dose 20 µM; top dose inferred
# Protocol: as §1
# TG101348 = compound: Cc1cnc(Nc2ccc(OCCN3CCCC3)cc2)nc1Nc1cccc(S(=O)(=O)NC(C)(C)C)c1 [TG101348]; details: top dose 10.24 µM
# Protocol: as §1
# 17-AAG = compound: C=CCNC1=C2C[C@@H](C)C[C@H](OC)[C@H](O)[C@@H](C)/C=C(\C)[C@H](OC(N)=O)[C@@H](OC)/C=C\C=C(/C)C(=O)NC(=CC1=O)C2=O [17-AAG]; details: top dose 1 µM
# Protocol: as §1
# UNC1215 = compound: O=C(c1ccc(C(=O)N2CCC(N3CCCC3)CC2)c(Nc2ccccc2)c1)N1CCC(N2CCCC2)CC1 [UNC1215]; details: top dose 1 µM; top dose inferred
# Protocol: as §1
# Vismodegib = compound: CS(=O)(=O)c1ccc(C(=O)Nc2ccc(Cl)c(-c3ccccn3)c2)c(Cl)c1 [Vismodegib]; details: top dose 10 µM; top dose inferred
# Protocol: as §1
# VX-11e = compound: Cc1cnc(Nc2ccc(F)cc2Cl)nc1-c1c[nH]c(C(=O)N[C@H](CO)c2cccc(Cl)c2)c1 [VX-11e]; details: top dose 5.12 µM; top dose inferred
# Protocol: as §1
# CCT018159 = compound: CCc1cc(-c2n[nH]c(C)c2-c2ccc3c(c2)OCCO3)c(O)cc1O [CCT018159]; details: top dose 10 µM; top dose inferred
# Protocol: as §1
# Dimethyloxalylglycine = compound: COC(=O)CNC(=O)C(=O)OC [Dimethyloxalylglycine]; details: top dose 4000 µM; top dose inferred
# Protocol: as §1
Cell Line,AUC (BMX-IN-1 (QL-XII-61)),IC50 (BMX-IN-1 (QL-XII-61)),AUC (OSI-027),IC50 (OSI-027),AUC (BIX02189),IC50 (BIX02189),AUC (TG101348),IC50 (TG101348),AUC (17-AAG),IC50 (17-AAG),AUC (UNC1215),IC50 (UNC1215),AUC (Vismodegib),IC50 (Vismodegib),AUC (VX-11e),IC50 (VX-11e),AUC (CCT018159),IC50 (CCT018159),AUC (Dimethyloxalylglycine),IC50 (Dimethyloxalylglycine)
"JHOS-3 (ovary, adherent)",0.861,> 10 µM,0.747,7.97 µM,0.905,> 20 µM,0.922,> 10.2 µM,0.876,> 1 µM,0.982,> 1 µM,0.984,> 10 µM,0.894,> 5.12 µM,0.975,> 10 µM,–,–
"Jurkat (T-cell leukaemia, suspension)",0.825,4.62 µM,–,–,–,–,–,–,0.989,> 1 µM,0.987,> 1 µM,0.989,> 10 µM,–,–,0.984,> 10 µM,–,–
"KATOIII (stomach, semi-adherent)",0.988,> 10 µM,–,–,–,–,–,–,0.603,0.117 µM,0.983,> 1 µM,0.988,> 10 µM,–,–,0.965,> 10 µM,–,–
"KYAE-1 (oesophagus, suspension)",0.846,8.53 µM,0.165,0.103 µM,0.912,> 20 µM,0.745,3.52 µM,0.473,0.0524 µM,0.97,> 1 µM,0.977,> 10 µM,0.92,> 5.12 µM,0.921,> 10 µM,–,–
"MKN7 (stomach, adherent)",0.981,> 10 µM,–,–,–,–,–,–,0.948,> 1 µM,0.982,> 1 µM,0.926,> 10 µM,–,–,0.89,> 10 µM,–,–
"NCC010 (kidney, adherent)",0.979,> 10 µM,–,–,–,–,–,–,0.931,> 1 µM,0.959,> 1 µM,0.986,> 10 µM,–,–,0.92,> 10 µM,–,–
"NCC021 (kidney, adherent)",0.977,> 10 µM,0.398,0.623 µM,0.924,> 20 µM,0.806,6.3 µM,0.949,> 1 µM,0.983,> 1 µM,0.971,> 10 µM,0.956,> 5.12 µM,–,–,–,–
"NCI-H508 (large intestine, semi-adherent)",0.964,> 10 µM,–,–,–,–,–,–,0.583,0.123 µM,0.961,> 1 µM,0.915,> 10 µM,–,–,0.963,> 10 µM,–,–
"NCI-H929 (myeloma, suspension)",0.786,3.64 µM,–,–,–,–,–,–,0.829,0.501 µM,0.99,> 1 µM,0.95,> 10 µM,–,–,0.82,4.69 µM,–,–
"NCI-N87 (stomach, adherent)",0.961,> 10 µM,–,–,–,–,–,–,0.425,0.0356 µM,0.976,> 1 µM,0.979,> 10 µM,–,–,0.889,> 10 µM,–,–
"OACp4C (oesophagus, adherent)",0.951,> 10 µM,0.415,0.698 µM,0.829,16.1 µM,0.645,1.75 µM,0.864,> 1 µM,0.974,> 1 µM,0.96,> 10 µM,0.673,1.07 µM,0.912,> 10 µM,–,–
"OC-314 (ovary, adherent)",0.973,> 10 µM,0.35,0.515 µM,0.942,> 20 µM,0.826,5.05 µM,0.676,0.179 µM,0.983,> 1 µM,0.988,> 10 µM,0.976,> 5.12 µM,0.83,5.08 µM,–,–
"OV-7 (ovary, adherent)",0.967,> 10 µM,0.568,2.11 µM,0.845,> 20 µM,0.845,> 10.2 µM,0.644,0.193 µM,0.943,> 1 µM,0.893,> 10 µM,0.968,> 5.12 µM,0.962,> 10 µM,–,–
"PWR-1E (prostate, adherent)",0.798,4.73 µM,–,–,–,–,–,–,0.662,0.176 µM,0.985,> 1 µM,0.984,> 10 µM,–,–,0.849,7.42 µM,–,–
"RCC-ER (kidney, adherent)",0.977,> 10 µM,0.797,10.8 µM,0.986,> 20 µM,0.829,7.45 µM,0.884,> 1 µM,0.984,> 1 µM,0.986,> 10 µM,0.973,> 5.12 µM,–,–,–,–
"SK-GT-2 (stomach, adherent)",0.963,> 10 µM,–,–,–,–,–,–,0.706,0.246 µM,0.984,> 1 µM,0.974,> 10 µM,–,–,0.864,9.5 µM,–,–
"SU-DHL-10 (B-cell lymphoma, suspension)",0.97,> 10 µM,0.089,0.117 µM,0.891,11.6 µM,0.55,0.846 µM,0.931,0.783 µM,0.997,> 1 µM,–,–,0.973,> 5.12 µM,0.922,7.29 µM,0.055,17.8 µM
"VMRC-LCD (lung adenocarcinoma, adherent)",0.986,> 10 µM,–,–,–,–,–,–,0.91,> 1 µM,0.992,> 1 µM,0.993,> 10 µM,–,–,0.934,> 10 µM,–,–
"ZR-75-30 (breast, adherent)",0.981,> 10 µM,–,–,–,–,–,–,0.752,0.5 µM,0.981,> 1 µM,0.983,> 10 µM,–,–,0.922,> 10 µM,–,–
